# From paper PMC4336329 (PLoS ONE, 2015)
# Out of some 310,000 compounds screened, about 2,200 (0.71%) showed an effect of 50% or more. The effect is printed as a negative number. The list shows a part of the results.
# Biological target: human ether-à-go-go-related gene (hERG) potassium channel (human, UniProt Q12809)
# Test: primary screen, population patch clamp on CHO cells stably expressing hERG
# Chain of human ether-à-go-go-related gene (hERG) potassium channel (Q12809 whole entry, looked up): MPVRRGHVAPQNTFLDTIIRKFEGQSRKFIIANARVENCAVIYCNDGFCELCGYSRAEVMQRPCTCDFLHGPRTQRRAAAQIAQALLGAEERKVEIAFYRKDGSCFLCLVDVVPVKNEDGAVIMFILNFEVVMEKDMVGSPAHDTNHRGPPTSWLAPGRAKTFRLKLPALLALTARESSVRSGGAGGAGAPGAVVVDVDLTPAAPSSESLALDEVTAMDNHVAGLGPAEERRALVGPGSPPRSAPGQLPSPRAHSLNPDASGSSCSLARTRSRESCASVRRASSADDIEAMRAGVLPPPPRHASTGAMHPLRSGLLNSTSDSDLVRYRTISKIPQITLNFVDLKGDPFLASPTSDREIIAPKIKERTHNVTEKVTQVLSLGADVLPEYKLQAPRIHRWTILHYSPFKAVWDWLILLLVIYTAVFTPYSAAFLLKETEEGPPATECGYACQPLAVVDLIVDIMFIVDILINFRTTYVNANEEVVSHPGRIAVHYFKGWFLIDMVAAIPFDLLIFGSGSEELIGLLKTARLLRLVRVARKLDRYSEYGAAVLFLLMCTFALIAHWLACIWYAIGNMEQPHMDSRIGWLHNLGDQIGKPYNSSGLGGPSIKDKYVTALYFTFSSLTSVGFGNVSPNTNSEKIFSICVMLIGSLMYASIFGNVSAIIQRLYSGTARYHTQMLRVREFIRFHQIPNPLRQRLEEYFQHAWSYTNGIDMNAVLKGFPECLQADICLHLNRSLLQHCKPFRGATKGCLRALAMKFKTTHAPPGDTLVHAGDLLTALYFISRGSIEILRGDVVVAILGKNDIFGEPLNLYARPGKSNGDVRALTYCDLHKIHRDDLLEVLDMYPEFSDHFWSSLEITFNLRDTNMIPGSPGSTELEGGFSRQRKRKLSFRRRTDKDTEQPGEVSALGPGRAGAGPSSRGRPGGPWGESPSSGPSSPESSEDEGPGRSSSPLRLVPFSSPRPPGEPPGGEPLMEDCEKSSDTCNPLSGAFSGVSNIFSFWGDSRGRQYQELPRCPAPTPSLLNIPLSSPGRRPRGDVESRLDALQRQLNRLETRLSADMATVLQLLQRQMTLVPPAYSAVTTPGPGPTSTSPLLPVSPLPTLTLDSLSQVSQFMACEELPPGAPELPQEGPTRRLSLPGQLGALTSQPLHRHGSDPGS
row,SMILES,"hERG current change (%, negative = inhibition) at 1uM [%]"
1,COc1ccc(-c2nc(SC)n(S(=O)(=O)c3ccccc3)n2)cc1,5.99
2,Cc1ccc2nc(SCC(=O)Nc3ccc(C(N)=O)cc3)[nH]c2c1,14
3,COc1ccc2oc(C(=O)OCC(=O)N3CCN(c4ccccc4)CC3)c(C)c2c1,18.2
4,CC(NC(=O)c1ccc(Br)o1)C1CCCO1 (stereo not shown),13.3
5,C/C(Cl)=C/CSc1nn2c(=O)c3ccccc3nc2s1,2.8
6,Br.Clc1ccccc1CNCC1CCCO1 (stereo not shown),5.32
7,S=c1nccc(-c2ccc(Cl)cc2)[nH]1,14
8,COC(=O)N/N=C(\C)c1cccs1,17.7
9,CCCCN1C(=S)NC[C@@H]1Cc1ccc(O)cc1,9.11
10,Cc1cccc(C(=O)NCc2nnc(SCC(=O)NC3=NCCS3)n2C)c1,14.2
11,CC(Sc1nccn1C)C(=O)c1ccc(Br)cc1 (stereo not shown),13.7
12,COCCNC(=O)c1cc(S(=O)(=O)N(C)c2ccccc2OC)ccc1C,9.97
13,CCC(OC(=O)CCc1nc2ccccc2[nH]c1=O)C(=O)c1ccccc1 (stereo not shown),17.6
14,CCc1nnc(NC(=O)CSc2nc(-c3ccccc3)cc(-c3ccc(OC)cc3)c2C#N)s1,25
15,Cc1cc(C(=O)COC(=O)c2cccn2C)c(C)n1Cc1ccco1,10.6
16,CC(=O)c1c(C)[nH]c(C(=O)OCC(=O)NCCC2=CCCCC2)c1C,11.9
17,O=S(=O)(Nc1ccccc1)c1cccc2nonc12,17.4
18,O=C(c1ccc(OC2CCN(CCc3ccccc3)CC2)cc1)N1CCC(CO)CC1,15.4
19,O=S(=O)(Nc1ccccn1)c1ccc(Cl)c2ccccc12,9.64
20,COC(=O)c1ccccc1NC(=S)N1CCN(c2ccc(OC)cc2)CC1,14.9
21,CC(=O)c1ccc(NC(=O)C2CC(=O)Nc3nc4ccccc4n32)cc1 (stereo not shown),11.9
22,COc1ccnc(Oc2ccc(F)cc2)c1C(=O)N/C=N/OCc1c(Cl)cccc1Cl,3.34
23,CCc1ccc(N2C(=O)NC(=O)/C(=C/c3ccsc3)C2=O)cc1,12.4

row,SMILES,"hERG current change (%, negative = inhibition) at 1uM [%]"
1,N#CCC(=O)Nc1ccc(C(=O)OCC(=O)c2ccc3c(c2)OCCO3)cc1,8.35
2,CN1CCC(N(C)C(=O)COc2ccccc2-c2ccccc2)CC1.Cl,-10.5
3,CC1=CC(C)(C)N2C(=O)C3(NCCc4c3[nH]c3ccccc43)c3cccc1c32 (stereo not shown),30.2
4,COc1ccc(/C=N/NC(=O)Cn2nc(C)c([N+](=O)[O-])c2C)cc1,-1.96
5,CC(C)(C)n1nnnc1C(c1cccnc1)N1CCN(c2ccccn2)CC1 (stereo not shown),13
6,CC(=O)Nc1cccc(/C(C)=N/NC(=S)NC(C)C)c1,5.37
7,Cn1c(CNC(=O)C2CCCCC2)cc2cc(Cl)ccc21,8.7
8,O=C(c1ccc(Cl)cc1)N1CCN(C(=O)c2ccco2)CC1,-1.02
9,COc1cc(/C=N/NC(=S)Nc2cccc(C(=O)O)c2)cc(OC)c1OC,22.7
10,CCc1noc(C)c1C(=O)Nc1ccc(-c2nnc3n2CCCCC3)cc1,11.6
11,CC1CCCN(S(=O)(=O)c2ccc(C(=O)Nc3nnc(-c4ccccc4Cl)o3)cc2)C1 (stereo not shown),19.8
12,COC(=O)c1oc2ccc(Br)cc2c1NC(=O)c1ccccc1,11
13,NS(=O)(=O)c1ccc(NC(=O)c2ccc3nccnc3c2)cc1,8.42
14,COC(=O)c1c(NC(=O)CCC(=O)O)sc(Cc2ccccc2)c1C,8.48
15,O=C(c1ccccc1F)N(Cc1ccccc1)Cc1ccccc1,16.6
16,CCn1c(SCc2nc(-c3ccccc3)no2)nnc1-c1cccs1,3.84
17,CCN1C(=O)[C@H]2[C@@H](c3ccc(-c4cccc(Cl)c4)c(OC)c3)N[C@@](CC(C)C)(C(=O)OC)[C@H]2C1=O.O=C(O)C(F)(F)F,16.4
18,Cl.O=C(CN1CCCC1)N1c2ccccc2Sc2ccc(C(F)(F)F)cc21,13
19,COc1ccc(-n2nc3c(c2NC(=O)c2ccc4c(c2)OCO4)CS(=O)(=O)C3)cc1,12.3
20,O=C(NC12CC3CC(CC(C3)C1)C2)c1ccccc1O,5.33
21,C/C(N)=C(/C#N)C(=O)COC(=O)CCC1CCCC1,-1.84
22,Cc1cc(=O)[nH]c2c1cnn2C(C)c1ccccc1 (stereo not shown),19.6
23,COc1ccc(N2CCN(C(=O)c3ccc(C)c(NC(=O)c4ccco4)c3)CC2)cc1,-53.7
